# Measured values published in a collection of fitness landscapes (doi:10.1016/j.celrep.2020.107928).
# In all, about 81,000 sequences were measured (“one-hybrid fitness for binding NBS DNA”: median about -0.1, highest 2% from about 0.36 on). Some of the results follow.
# B1: Caulobacter ParB omega fusion; a variant is named by its letters at X, in order, B8GW30 (parent)
# chain: MESVVVGEPGMSEGRRGLGRGLSALLGEVDAAPAQAPGEQLGGSREAPIEILQRNPDQPRRTFREEDLEDLSNSIREKGVLQPILVRPSPDTAGEYQIVAGERAWRAAQRAGLKTVPIMVRELDDLAVLEIGIIENVQRADLNVLEEALSYKVLMEKFERTQENIAQTIGKSXSHVANXMRLLXLPDEVQSYLVSGELTAXHARAIAAAADPVALAKQIIEGGLSVRETEALARKAPNLSAGKSKGGRPPRVKDTDTQALESDLSSVLGLDVSIDHRGSTGTLTITYATLEQLDDLCNRLTRGI
# Variants of: B1
# Assay: one-hybrid fitness for binding NBS DNA (the Noc-binding site; scaled: cognate 1, non-cognate 0); higher = stronger binding
# Conditions: with NBS DNA site
# How it was run: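 Bacterial one-hybrid selection in E. coli USO rpoZ- hisB- pyrF- with a HIS3 reporter carrying the site 19 bp from the promoter, screening Caulobacter ParB libraries with four specificity codons randomised (NNS). Cells grew 48 hours at 37°C on M9-minus-histidine plus 0.1 mM IPTG and 5 mM 3-AT. Plasmids before and after selection were Illumina-sequenced, three replicate libraries pooled, and variants under 10 reads dropped. Fitness is the log change in variant-to-wild-type read ratio, rescaled to cognate 1, non-cognate 0.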
row,Variant,one-hybrid fitness for binding NBS DNA
1,TDLQ,≤ 0.2
2,RATC,≤ 0.2
3,GSLV,≤ 0.2
4,GFTY,≤ 0.2
5,MGFC,≤ 0.2
6,TGAT,≤ 0.2
7,PKTT,≤ 0.2
8,IAQN,≤ 0.2
9,RHVW,≤ 0.2
10,DSTD,≤ 0.2
11,IAGY,≤ 0.2
12,QPLE,≤ 0.2
13,AHCH,≤ 0.2
14,RETA,≤ 0.2
15,LQPV,≤ 0.2
16,RNYH,≤ 0.2
17,ANPS,≤ 0.2
18,QHLD,≤ 0.2
19,KIGF,≤ 0.2
20,LQSM,≤ 0.2
21,NLKH,≤ 0.2
22,IVSW,≤ 0.2
23,RKAA,0.335
24,AIAT,≤ 0.2

row,Variant,one-hybrid fitness for binding NBS DNA
1,KHEV,≤ 0.2
2,DRKC,≤ 0.2
3,VRMG,≤ 0.2
4,PYGH,≤ 0.2
5,RSKP,≤ 0.2
6,PHMG,≤ 0.2
7,RLIA,≤ 0.2
8,PSDM,≤ 0.2
9,EIHH,≤ 0.2
10,HLLW,≤ 0.2
11,AVPY,≤ 0.2
12,MVRE,≤ 0.2
13,MLHM,≤ 0.2
14,SCGS,≤ 0.2
15,FSLV,≤ 0.2
16,PLAM,≤ 0.2
17,AFID,≤ 0.2
18,MHQY,≤ 0.2
19,LNAL,≤ 0.2
20,FRRY,≤ 0.2
21,VGFT,≤ 0.2
22,HHFT,≤ 0.2
23,AISM,≤ 0.2
24,FFGT,≤ 0.2

row,Variant,one-hybrid fitness for binding NBS DNA
1,RPVA,≤ 0.2
2,MEHI,≤ 0.2
3,GYHM,≤ 0.2
4,ESMG,≤ 0.2
5,DNVG,≤ 0.2
6,TQWD,≤ 0.2
7,DSEW,≤ 0.2
8,YRVN,≤ 0.2
9,LTTW,≤ 0.2
10,KAQS,≤ 0.2
11,REPK,≤ 0.2
12,FLTT,≤ 0.2
13,QVKL,≤ 0.2
14,TIFW,≤ 0.2
15,RAQQ,≤ 0.2
16,RMTC,≤ 0.2
17,VMNP,≤ 0.2
18,QDHE,≤ 0.2
19,TPAS,≤ 0.2
20,QTSA,0.397
21,MCMS,≤ 0.2
22,HVQA,≤ 0.2
23,QKMV,≤ 0.2
24,QKDG,≤ 0.2

row,Variant,one-hybrid fitness for binding NBS DNA
1,PAAA,≤ 0.2
2,TDPM,≤ 0.2
3,ATAW,≤ 0.2
4,HFHR,≤ 0.2
5,MNTE,≤ 0.2
6,PVNV,≤ 0.2
7,YLPA,≤ 0.2
8,HCQW,≤ 0.2
9,YCDC,≤ 0.2
10,GATH,≤ 0.2
11,EKLR,≤ 0.2
12,RACI,≤ 0.2
13,PWRR,≤ 0.2
14,MAAS,≤ 0.2
15,TLVT,≤ 0.2
16,FRQC,≤ 0.2
17,SPTM,≤ 0.2
18,RKVG,≤ 0.2
19,VTRW,≤ 0.2
20,AGNS,≤ 0.2
21,LVGS,≤ 0.2
22,PTGY,≤ 0.2
23,VSNV,≤ 0.2
24,VSTN,≤ 0.2

row,Variant,one-hybrid fitness for binding NBS DNA
1,VQRL,≤ 0.2
2,QFDN,≤ 0.2
3,IMPS,≤ 0.2
4,YAAT,≤ 0.2
5,MSKM,≤ 0.2
6,PAVV,≤ 0.2
7,CNCR,≤ 0.2
8,PRPT,≤ 0.2
9,AFYL,≤ 0.2
10,SPEI,≤ 0.2
11,KAYC,≤ 0.2
12,NMVF,≤ 0.2
13,PTGS,≤ 0.2
14,VIMC,≤ 0.2
15,NMIA,≤ 0.2
16,QWSR,0.229
17,NSAW,≤ 0.2
18,IEMF,≤ 0.2
19,TSHS,≤ 0.2
20,GSTA,≤ 0.2
21,SIPN,≤ 0.2
22,YRTC,≤ 0.2
23,TGNH,≤ 0.2
24,WPDT,≤ 0.2

row,Variant,one-hybrid fitness for binding NBS DNA
1,SVAV,≤ 0.2
2,QLTI,≤ 0.2
3,ATTC,≤ 0.2
4,YLRD,≤ 0.2
5,TWVV,≤ 0.2
6,HHPA,≤ 0.2
7,FPNT,≤ 0.2
8,NCAP,≤ 0.2
9,NRAE,≤ 0.2
10,KNRG,≤ 0.2
11,PVLI,≤ 0.2
12,GYGS,≤ 0.2
13,QMAE,≤ 0.2
14,NCAV,≤ 0.2
15,RFRN,≤ 0.2
16,CQYT,≤ 0.2
17,SVFI,≤ 0.2
18,PRIM,≤ 0.2
19,NVRR,≤ 0.2
20,LTAK,≤ 0.2
21,MKTC,≤ 0.2
22,VENG,≤ 0.2
23,PISR,≤ 0.2
24,HRKN,≤ 0.2

row,Variant,one-hybrid fitness for binding NBS DNA
1,HGTI,≤ 0.2
2,WTCV,≤ 0.2
3,TYPL,≤ 0.2
4,VKCR,≤ 0.2
5,SDQG,≤ 0.2
6,AQSS,≤ 0.2
7,PFYW,≤ 0.2
8,CRVN,≤ 0.2
9,VLNL,≤ 0.2
10,GFAG,≤ 0.2
11,GWCC,≤ 0.2
12,PFFE,≤ 0.2
13,SLIV,≤ 0.2
14,DSLG,≤ 0.2
15,HNWG,≤ 0.2
16,YSAM,≤ 0.2
17,VLLG,≤ 0.2
18,GYEG,≤ 0.2
19,CHQT,≤ 0.2
20,WQVS,≤ 0.2
21,SQEC,≤ 0.2
22,RAKL,≤ 0.2
23,GGMR,≤ 0.2
24,SCTS,≤ 0.2

row,Variant,one-hybrid fitness for binding NBS DNA
1,LALR,≤ 0.2
2,LRDK,≤ 0.2
3,HQRT,≤ 0.2
4,HLVV,≤ 0.2
5,PTRV,≤ 0.2
6,SEDW,≤ 0.2
7,PPYF,≤ 0.2
8,ECTR,≤ 0.2
9,KDSW,≤ 0.2
10,AKAS,≤ 0.2
11,CRDC,≤ 0.2
12,SLIP,≤ 0.2
13,QIHF,≤ 0.2
14,AQPY,≤ 0.2
15,QQIF,≤ 0.2
16,QMSA,0.28
17,TQTR,≤ 0.2
18,FIRA,≤ 0.2
19,PLTH,≤ 0.2
20,WPRY,≤ 0.2
21,AANG,≤ 0.2
22,ARRA,≤ 0.2
23,RNDG,≤ 0.2
24,KRGK,≤ 0.2

row,Variant,one-hybrid fitness for binding NBS DNA
1,ARHS,≤ 0.2
2,AAPA,≤ 0.2
3,CRYR,≤ 0.2
4,SDEY,≤ 0.2
5,VDTH,≤ 0.2
6,NYFC,≤ 0.2
7,DYGF,≤ 0.2
8,GICP,≤ 0.2
9,YRRM,≤ 0.2
10,QVAL,≤ 0.2
11,HLKD,≤ 0.2
12,RMRE,≤ 0.2
13,QQVG,≤ 0.2
14,RRWT,0.824
15,AHSL,≤ 0.2
16,RSLN,≤ 0.2
17,AKFY,≤ 0.2
18,LVEC,≤ 0.2
19,DAPT,≤ 0.2
20,AKMR,≤ 0.2
21,ALMV,≤ 0.2
22,STKM,≤ 0.2
23,FMSV,≤ 0.2
24,VKMT,≤ 0.2

row,Variant,one-hybrid fitness for binding NBS DNA
1,AAGC,≤ 0.2
2,IISS,≤ 0.2
3,KLYS,≤ 0.2
4,WLEG,≤ 0.2
5,PLSD,≤ 0.2
6,MSSR,≤ 0.2
7,IQTT,≤ 0.2
8,APAW,≤ 0.2
9,KLKC,≤ 0.2
10,KSLG,≤ 0.2
11,VTNS,≤ 0.2
12,PCSS,≤ 0.2
13,RVMN,≤ 0.2
14,EISW,≤ 0.2
15,QYDG,≤ 0.2
16,EGYA,≤ 0.2
17,HGYS,≤ 0.2
18,DWSA,≤ 0.2
19,YAKW,≤ 0.2
20,HQQD,≤ 0.2
21,WRNR,≤ 0.2
22,RKMH,0.214
23,RCED,≤ 0.2
24,WNYG,≤ 0.2

row,Variant,one-hybrid fitness for binding NBS DNA
1,GEKR,≤ 0.2
2,SAQC,≤ 0.2
3,ARKH,≤ 0.2
4,HKTK,≤ 0.2
5,PMIT,≤ 0.2
6,HCAA,≤ 0.2
7,HLNS,≤ 0.2
8,MTGC,≤ 0.2
9,AHCS,≤ 0.2
10,ADLM,≤ 0.2
11,CQPL,≤ 0.2
12,REGG,≤ 0.2
13,KSQV,≤ 0.2
14,RGGY,≤ 0.2
15,FFIS,≤ 0.2
16,PTLF,≤ 0.2
17,SEYI,≤ 0.2
18,TMTW,≤ 0.2
19,SVHF,≤ 0.2
20,GTKN,≤ 0.2
21,RKLQ,≤ 0.2
22,CFAG,≤ 0.2
23,MINP,≤ 0.2
24,ACPF,≤ 0.2

row,Variant,one-hybrid fitness for binding NBS DNA
1,VVRS,≤ 0.2
2,GCNS,≤ 0.2
3,LFST,≤ 0.2
4,DMVG,≤ 0.2
5,NYEF,≤ 0.2
6,CLVL,≤ 0.2
7,VMWG,≤ 0.2
8,LAMC,≤ 0.2
9,QQDR,0.388
10,CVER,≤ 0.2
11,ETSN,≤ 0.2
12,TYKL,≤ 0.2
13,SPSL,≤ 0.2
14,RWRG,≤ 0.2
15,PGFC,≤ 0.2
16,NTYF,≤ 0.2
17,GQLC,≤ 0.2
18,IDRR,0.22
19,TVAR,≤ 0.2
20,KELS,≤ 0.2
21,TEHH,≤ 0.2
22,FAEV,≤ 0.2
23,VNFY,≤ 0.2
24,KECS,≤ 0.2

row,Variant,one-hybrid fitness for binding NBS DNA
1,TIST,≤ 0.2
2,VHSC,≤ 0.2
3,SVAE,≤ 0.2
4,PYAP,≤ 0.2
5,PLEA,≤ 0.2
6,MPSM,≤ 0.2
7,LVEH,≤ 0.2
8,STIP,≤ 0.2
9,DFTC,≤ 0.2
10,SNTQ,≤ 0.2
11,RRLP,≤ 0.2
12,RHHK,≤ 0.2
13,EQLS,≤ 0.2
14,AQPF,≤ 0.2
15,HKQT,≤ 0.2
16,QSEM,≤ 0.2
17,LLLT,≤ 0.2
18,ADGF,≤ 0.2
